# Assay results taken from publication PMC4336329 (PLoS ONE, 2015).
# The campaign covered roughly 310,000 compounds. About 14,000 (4.5%) showed an effect of 50% or more. The effect is printed as a negative number. Some of the results follow.
# Molecular target: human ether-à-go-go-related gene (hERG) potassium channel (human, UniProt Q12809)
# Experiment: primary screen, population patch clamp on CHO cells stably expressing hERG
# 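Note: peak tail current of the secondary pulse compared with the same well before compound.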
# Chain of human ether-à-go-go-related gene (hERG) potassium channel (Q12809 whole entry, looked up): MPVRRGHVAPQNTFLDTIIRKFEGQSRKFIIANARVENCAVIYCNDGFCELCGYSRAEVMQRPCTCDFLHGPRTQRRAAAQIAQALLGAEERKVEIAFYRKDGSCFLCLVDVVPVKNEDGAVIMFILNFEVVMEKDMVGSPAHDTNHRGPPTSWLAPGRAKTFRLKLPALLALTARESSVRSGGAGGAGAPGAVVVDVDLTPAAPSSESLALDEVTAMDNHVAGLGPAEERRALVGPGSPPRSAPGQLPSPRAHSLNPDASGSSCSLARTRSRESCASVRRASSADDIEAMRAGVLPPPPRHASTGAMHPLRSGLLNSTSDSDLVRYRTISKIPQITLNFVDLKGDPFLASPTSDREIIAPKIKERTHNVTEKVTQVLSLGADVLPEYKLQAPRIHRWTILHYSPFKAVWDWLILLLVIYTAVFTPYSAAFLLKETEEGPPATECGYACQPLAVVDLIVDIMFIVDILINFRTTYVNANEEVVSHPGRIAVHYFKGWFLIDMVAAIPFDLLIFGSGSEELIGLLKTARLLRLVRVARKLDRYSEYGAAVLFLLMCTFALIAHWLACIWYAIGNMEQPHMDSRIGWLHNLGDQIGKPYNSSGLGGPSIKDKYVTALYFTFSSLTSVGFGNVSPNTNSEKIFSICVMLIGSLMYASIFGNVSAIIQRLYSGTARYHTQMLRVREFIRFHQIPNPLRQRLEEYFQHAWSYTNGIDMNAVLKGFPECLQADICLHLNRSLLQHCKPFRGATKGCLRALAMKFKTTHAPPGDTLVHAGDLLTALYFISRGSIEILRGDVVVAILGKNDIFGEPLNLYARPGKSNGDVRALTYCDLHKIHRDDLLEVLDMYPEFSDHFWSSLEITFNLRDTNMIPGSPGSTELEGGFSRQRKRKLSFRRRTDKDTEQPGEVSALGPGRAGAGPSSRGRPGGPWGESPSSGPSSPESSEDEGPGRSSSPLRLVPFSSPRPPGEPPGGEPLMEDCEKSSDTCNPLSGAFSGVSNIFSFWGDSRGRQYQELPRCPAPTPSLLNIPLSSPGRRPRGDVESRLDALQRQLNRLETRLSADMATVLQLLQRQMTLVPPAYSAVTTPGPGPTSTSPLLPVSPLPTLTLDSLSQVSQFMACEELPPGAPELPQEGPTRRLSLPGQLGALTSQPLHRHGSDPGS
row,Structure (SMILES),"hERG current change (%, negative = inhibition) at 10uM"
1,Cc1c(NC(=O)Nc2cccc(Cl)c2)c(=O)n(-c2ccccc2)n1C,11.4%
2,COc1ccccc1N(Cc1ccccc1)S(=O)(=O)c1cccc(C(=O)NCC2CCCO2)c1 (stereo not drawn),-46.3%
3,Cc1ccc(C)c(Cn2c(=O)n(C)c(=O)c3sccc32)c1,7.39%
4,O=C(O)/C=C\C(=O)O.c1cc(CN2CCCCC2)cc(OCCCNc2nc3ccccc3s2)c1,-46.6%
5,CC(=O)N1CCN(C(=O)Cn2c(=O)oc3ccccc32)CC1,5%
6,O=C(CN1CCN(S(=O)(=O)c2ccc(F)cc2)CC1)NCC1(N2CCOCC2)CCCCC1,-18.6%
7,Cc1nnc(SCC(=O)NCCN2C(=O)CSC2=O)s1,-6.67%
8,CCOC(=O)C1=C(N)Oc2ccc3ccccc3c2C1c1cccc(O)c1 (stereo not drawn),14.3%
9,O=C(Nc1ccccc1)Nc1cccc2cccnc12,1.04%
10,NNC(=O)COc1cccc2cccnc12,12.4%
11,O=C(c1ccc2c(c1)C(=O)N(c1ccc(Cl)cc1)C2=O)N1CCN(c2ccccn2)CC1,6.39%
12,CN(C)c1ccc(/C=N/NC(=O)c2ccc(-n3cnnn3)cc2)cc1,10.8%
13,O=C1c2ccccc2S(=O)(=O)c2cc(C(=O)N3CCC(C(=O)N4CCCCC4)CC3)ccc21,4.81%
14,Cc1ccc(C(C(=O)NC2CCCC2)N(C(=O)c2csnn2)C2CCCC2)o1 (stereo not drawn),-4.91%
15,COc1ccc(N2CCN(C(=O)Nc3cccc(C(F)(F)F)c3)CC2)cc1,-6.04%
16,Cc1ccc(NC(=O)COC(=O)/C=C/c2cccs2)c(C)c1,-21.8%
17,CC(=O)c1c(C)nc(C)nc1NC(=O)C(C)C,11%
18,CC(=O)Nc1ccc(Nc2ncnc(N)c2[N+](=O)[O-])cc1,12.6%
19,COc1ccc(NC(=O)N2c3ccccc3CC2C)cc1OC (stereo not drawn),-5.01%

row,Structure (SMILES),"hERG current change (%, negative = inhibition) at 10uM"
1,COc1ccccc1C(=O)NCCN=C1NS(=O)(=O)c2ccccc21,10.4%
2,CCCCOc1ccc(C(=O)Nc2ccc(C)cc2[N+](=O)[O-])cc1,4.59%
3,CC(C)c1ccc([N+](=O)[O-])cc1S(=O)(=O)N1CCN(C)CC1,7.47%
4,CCOc1ccc(Br)cc1CNc1ccc2c(c1)OCCO2,21.9%
5,CCOC(CCNC(=O)c1cn(-c2cccc(C)n2)cn1)OCC,-0.276%
6,O=C(N/N=C/c1ccc(Br)s1)c1ccccc1[N+](=O)[O-],2.22%
7,N#CC[C@H](c1ccccc1)N1CCN(Cc2ccccc2)CCC1=O,-1.88%
8,COc1cc(CC(=O)OCC(=O)Nc2ccc([N+](=O)[O-])cc2)cc(OC)c1OC,-37.5%
9,CC1Cc2ccccc2N1C(=O)c1cc2sccc2n1Cc1ccccc1 (stereo not drawn),7.64%
10,Cc1ccc(NC(=O)COC(=O)/C=C/c2cccs2)cc1,8.77%
11,O=C(CCn1c(=O)oc2ccccc21)Nc1ccon1,3.95%
12,Cc1cc(C)nc(SCC(=O)Nc2ccc(S(=O)(=O)Nc3onc(C)c3C)cc2)n1,1.94%
13,CCOC(=O)N1CCN(c2cc(=O)n(-c3ccc(OC)cc3)c(=O)[nH]2)CC1,0.278%
14,CCOc1cnc(-c2c(-c3ccccc3Cl)noc2C)o1,-3.56%
15,O=S(=O)(NCc1ccccc1)NCc1ccc(Cl)cc1Cl,17.5%
16,CCOc1cccc(OCCCCN2CCCCC2)c1,-38.1%
17,CCC(Sc1ccc2nnc(-c3ccc(F)cc3)n2n1)C(=O)O (stereo not drawn),-1.97%
18,CCOc1ccc(S(=O)(=O)N2CCCC(C(=O)NCc3ccncc3)C2)cc1Cl (stereo not drawn),-19.3%
19,C#C[C@]1(O)CCC2C3CCC4=C/C(=N/OCC(=O)NC(C)C(=O)NC(CCSC)C(=O)O)CC[C@]4(C)C3CC[C@@]21C (stereo partly drawn),24.2%

row,Structure (SMILES),"hERG current change (%, negative = inhibition) at 10uM"
1,COc1cc(C(=O)NCCCCCCNC(=O)c2cc(OC)c(OC)c(OC)c2)cc(OC)c1OC,20.3%
2,O=C(N/N=C/c1ccco1)Nc1ccccc1,1.3%
3,Cl.Nc1ccn([C@H]2C[C@H](O)[C@@H](CO)O2)c(=O)n1,12.2%
4,Cc1occc1C(=O)N(Cc1nc(-c2ccccc2)no1)C(C)C,-11.6%
5,O=[N+]([O-])c1cc([As](=O)(O)c2ccc(O)c([N+](=O)[O-])c2)ccc1O,11.7%
6,Cc1[nH]c2ccccc2c1SCc1nnc(SCc2ccccc2)n1C,4.6%
7,CN(C(=O)c1ccccc1)c1ccccc1C(=O)NCCc1ccccc1,8.03%
8,CC1Cc2ccccc2N1C(=O)CSc1nn2c(=O)c(C(C)(C)C)nnc2s1 (stereo not drawn),0.00368%
9,Nc1cccc(CN2CCCC2)c1,27.7%
10,COc1cccc(C(=O)NC(=S)Nn2cnnc2)c1OC,9.4%
11,O=C(CCCCl)NC(=S)Nc1ccc(N2CCOCC2)cc1,7.94%
12,CCOc1ccc(S(=O)(=O)N(CC(=O)NC2CCCCC2C)Cc2ccco2)cc1 (stereo not drawn),-38.9%
13,CC1=NC2(CCCc3c2no[n+]3[O-])N(O)C1(C)C (stereo not drawn),2.11%
14,O=C(NCC(=O)N1CCCCCCC1)c1cccc([N+](=O)[O-])c1,8.97%
15,CSc1ncccc1C(=O)OCc1cccc([N+](=O)[O-])c1,-6.69%
16,Cc1ccc(S(=O)(=O)c2c(C)nn(C(C)(C)C)c2OC(=O)c2cccs2)cc1,-19.7%
17,O=c1nc(-c2ccccc2)n(-c2ccc(Cl)cc2)[nH]1,12.3%
18,Cc1nc2ccc(C(=O)O)cc2nc1C,34.7%
19,CN1C(=O)CC(N2CCN(c3ncccn3)CC2)C1=O (stereo not drawn),1.27%
